Experimental findings from PubChem BioAssay AID1508642 (National Center for Advancing Translational Sciences (NCATS), 2021) are described below.

The campaign covered roughly 43,000 compounds. About 200 (0.47%) were called active. Roughly 12% stayed inconclusive and do not appear here. Calls come from the whole dose curve; as a rule, active = well fitted cell-killing curve with a large enough effect; inconclusive = small, poorly fitted or top-dose-only effect, or effect the other way; inactive = flat fitted curve, though single readings scatter. The list shows a part of the results.
% is set by controls: 0 for no effect and ±100 for the full control effect.

This test can be described thus: Cell viability qHTS assay in S16 Pmp22-F2sN cells. Note: nearly all actives have a fitted effect of over 65% in size. Conditions: S16 Pmp22-F2sN Schwann cells viability, CellTiter-Glo, 24 h; series mostly up to 57.5 µM; activity change, negative = cytotoxicity: at the top concentration. Put shortly: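 Used to flag compounds lowering reporter output through toxicity, this quantitative HTS measures ATP-based CellTiter-Glo luminescence in S16 Pmp22-F2sN Schwann cells after 24 h compound exposure at 37C.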
For `COc1ccc(-n2nnnc2C2CCN(S(=O)(=O)c3cccc(Cl)c3C)CC2)cc1`, the “activity change, negative = cytotoxicity” value was inactive: 15.1%.
For `CN(C(=O)c1cnc(N2CCOCC2)c2ccccc12)c1ccccc1F` the value was inactive: 2.33%; for `CCn1nc(-c2ccccc2)c(-c2ccccc2)c(C(=O)Nc2ccccc2C(N)=O)c1=O`, inactive: -1.19%; for `O=C(c1cnc(N2CCOCC2)c2ccccc12)N1CCN(c2ccc(F)cc2)CC1`, inactive: -15.5%.
With `Cc1c(-c2nc(-c3ccc4c(c3)[nH]c(=O)n4C)no2)cccc1[N+](=O)[O-]`, the “activity change, negative = cytotoxicity” value is inactive: 9.7%.
For `Cc1cccc(-c2noc(CN(C(C)C)S(=O)(=O)c3ccc(Br)cc3)n2)c1`, the “activity change, negative = cytotoxicity” value is inactive: -13%.
In the case of `Cc1ccc(N2CCN(Cc3nnc(-c4ccc5c(c4)OCO5)o3)CC2)c(C)c1`, the “activity change, negative = cytotoxicity” value was inactive: 3.16%.
On to `Cc1cccc(NC(=O)Cn2nc(C)c3nn(-c4ccc(Cl)cc4)c(C)c3c2=O)c1C`, for which the “activity change, negative = cytotoxicity” value is inactive: -4.8%.
The result for `COc1ccccc1N1CCN(C(=O)c2ccc3c(c2)N(Cc2ccccc2)C(=O)c2ccccc2S3(=O)=O)CC1` reads inactive: -7.09%; that for `COc1ccc(-c2cc(C(F)(F)F)n3nc(-c4ccc(Cl)cc4)cc3n2)cc1OC`, inactive: 15.1%; that for `COCCNC(=O)CSc1nc2cc3c(cc2c(=O)n1CCCCCC(=O)NCCc1ccc(OC)c(OC)c1)OCO3`, inactive: 0.346%.
For the compound `O=C1c2ccccc2-c2onc3c(Br)cc(NC4CCCCC4)c1c23`, the “activity change, negative = cytotoxicity” value was inactive: 2.21%.
For `Cc1cccc(N2C(=O)CSC23C(=O)N(CC(=O)NCCc2ccccc2)c2ccccc23)c1` (stereo not drawn), the “activity change, negative = cytotoxicity” value is inactive: -2.37%.
With `O=C(CSc1nnc(-c2cccs2)o1)Nc1cccc(C(F)(F)F)c1`, the “activity change, negative = cytotoxicity” value is inactive: -12.8%.
As to `CCCCOC(=O)c1ccc(NC(=O)c2ccc3c(c2)CCN3S(=O)(=O)c2ccccc2)cc1`, the “activity change, negative = cytotoxicity” value is inactive: 25%.
For `O=C(Nc1ccc(F)cc1F)c1ccc(-c2ccccc2)s1` the value was inactive: 6.92%; for `COc1ccc(C2CC(=O)c3cc(-c4nc(-c5cccc([N+](=O)[O-])c5)cs4)c(=O)n(-c4cc(C)cc(C)c4)c3C2)cc1` (stereo not drawn), inactive: -0.0498%; for `CCOC(=O)CSc1nc2sc3c(c2c(=O)n1CC)CCCC3`, inactive: 6.87%.
For `O=C(CCCn1c(=O)c2sccc2n(Cc2c(F)cccc2Cl)c1=O)NCc1ccccc1` the value was inactive: 18.3%; for `Cc1cnc2c(c1SCC(=O)N(C)c1ccccc1)c(=O)n(C)c(=O)n2C`, inactive: 10.3%.
As to `Cc1ccc2nc(CSc3nnc(NC(=O)COc4ccccc4F)s3)cc(=O)n2c1`, the “activity change, negative = cytotoxicity” value was inactive: 8.68%.
On to `COc1ccc(C)cc1N(CC(=O)N1CCC(C)CC1)S(=O)(=O)c1ccc(C)cc1`, for which the “activity change, negative = cytotoxicity” value is inactive: -7.72%.
With `Nc1c(C(=O)c2ccc3c(c2)OCO3)sc(Nc2ccccc2F)c1S(=O)(=O)c1ccccc1`, the “activity change, negative = cytotoxicity” value is inactive: -1.55%.
Take `CC(=O)c1cccc(NC(=O)Cn2cnc3c2c(=O)n(C)c(=O)n3C)c1`: the “activity change, negative = cytotoxicity” value was inactive: 2.23%.
The result for `CCOC(=O)c1cccc(NC(=O)Cc2ccc(NC(=O)N3CCCCc4ccccc43)cc2)c1` reads inactive: -26.2%; that for `CCC(=O)N1CCc2cc(Br)cc(S(=O)(=O)N3CCCC(C(=O)Nc4ccc(CC)cc4)C3)c21` (stereo not drawn), inactive: 5.41%.
Consider `COc1ccc(-n2c(CCC(=O)O)ccc2-c2ccccc2)cc1`, for which the “activity change, negative = cytotoxicity” value is inactive: 3.45%.
In the case of `CCOc1ccccc1CNS(=O)(=O)c1cnc(N)nc1`, the “activity change, negative = cytotoxicity” value was inactive: 17.7%.
For `COc1ccccc1Cn1c(CNS(=O)(=O)c2ccc(Cl)s2)nc2cccnc21` the value was inactive: -23.5%; for `Cc1nnc(N2CCN(c3ccccc3)CC2)c2c1nnn2Cc1ccc(F)cc1`, inactive: 4.62%.
As to `CCOC(=O)c1[nH]c(C)c(CCC(=O)N2CCN(c3cc(Cl)ccc3C)CC2)c1C`, the “activity change, negative = cytotoxicity” value is inactive: -7.36%.
For the compound `O=C1Nc2c(c(=O)[nH]c(=O)n2-c2ccc(Cl)cc2)C1(NS(=O)(=O)c1ccccc1)C(F)(F)F` (stereo not drawn), the “activity change, negative = cytotoxicity” value is inactive: 6.06%.
For `Cc1ccc(C)c(NC(=O)CCn2cnnn2)c1` the value was inactive: 0.63%; for `COc1ccc(Cn2c(=O)c3oc4ccccc4c3n(CC(=O)Nc3cc(C)cc(C)c3)c2=O)cc1`, inactive: 5.64%.
In the case of `Cc1c2cnn(CC(=O)NCCc3ccccc3)c(=O)c2c(C)n1Cc1ccccc1Cl`, the “activity change, negative = cytotoxicity” value was inactive: 6.63%.
On to `CCC1CCCCN1CCCNC(=O)c1ccc2c(c1)N(Cc1cccc(C)c1)C(=O)c1ccccc1S2(=O)=O` (stereo not drawn), for which the “activity change, negative = cytotoxicity” value was inactive: -11.1%.
Consider `O=C(NCc1ccccc1Cl)C(=O)NCC(c1ccco1)S(=O)(=O)c1cccs1` (stereo not drawn), for which the “activity change, negative = cytotoxicity” value is inactive: -12.9%.
Take `COc1ccccc1CNC(=O)C1CCN(c2nn3c(=O)cc(C)nc3s2)CC1`: the “activity change, negative = cytotoxicity” value was inactive: -1.85%.
As for `O=C(COc1ccccc1F)NC1CC(=O)N(c2ccc3c(c2)OCCO3)C1` (stereo not drawn), the “activity change, negative = cytotoxicity” value is inactive: -4.69%.
The result for `Cc1ccc(-c2nc3ccc(Br)cn3c2Nc2ccc3c(c2)OCO3)o1` reads inactive: 3.59%.
As for `CCc1ccccc1NC(=O)CSc1nc2c(oc3ccccc32)c(=O)n1-c1ccccc1`, the “activity change, negative = cytotoxicity” value was inactive: 2.76%.
Turning to `COc1ccc(/C=C(\C#N)c2nc(-c3ccc(Cl)c(Cl)c3)cs2)cc1OC`, the “activity change, negative = cytotoxicity” value is inactive: 18.6%.
Consider `COc1cc(C(=O)NCC(c2ccc(N(C)C)cc2)N2CCCC2)cc(OC)c1OC` (stereo not drawn), for which the “activity change, negative = cytotoxicity” value is inactive: 2.44%.
`CCOc1ccc(NC(=O)CSc2nc3nc(C)c(Cc4ccccc4)c(C)n3n2)cc1`: the “activity change, negative = cytotoxicity” value was inactive: 11.4%.
`CC(=O)c1ccc(NC(=O)CN2C(=O)c3cccnc3Sc3ccccc32)cc1`: the “activity change, negative = cytotoxicity” value is inactive: -6.22%.
The result for `CCc1ccc(NC(=O)CSc2nc(=O)n(Cc3cccnc3)c3c2CCC3)cc1` reads inactive: 1.27%.
As to `CCOc1ccc(NC(=O)CN2C(=O)CCSc3ccc(S(=O)(=O)N4CCCC4)cc32)cc1`, the “activity change, negative = cytotoxicity” value is inactive: 5.6%.
Take `O=C(NCC(c1cccnc1)N1CCOCC1)C(=O)Nc1cccc(Cl)c1` (stereo not drawn): the “activity change, negative = cytotoxicity” value was inactive: -18.6%.
